Apoptosis of MOLM-13 cells data for one molecule are collected here from patent US20220185896A1.

This test deals with recombinant, full length human Galectin-9 (human), O00182. Nature of the test: cell-based or functional assay.

B1: anti-Galectin-9 antibody G9.2-17 (IgG4) (antibody)
heavy: EVQLVESGGGLVQPGGSLRLSCAASGFTVSSSSIHWVRQAPGKGLEWVAYISSSSGYTYYADSVKGRFTISADTSKNTAYLQMNSLRAEDTAVYYCARYWSYPSWWPYRGMDYWGQGTLVTVSSASTKGPSVFPLAPCSRSTSESTAALGCLVKDYFPEPVTVSWNSGALTSGVHTFPAVLQSSGLYSLSSVVTVPSSSLGTKTYTCNVDHKPSNTKVDKRV[human IgG4 Fc with S228P L445P (EU numbers) cut from this listing]
light: DIQMTQSPSSLSASVGDRVTITCRASQSVSSAVAWYQQKPGKAPKLLIYSASSLYSGVPSRFSGSRSGTDFTLTISSLQPEDFATYYCQQSSTDPITFGQGTKVEIKRTVAAPSVFIFPPSDEQLKSGTASVVCLLNNFYPREAKVQWKVDNALQSGNSQESVTEQDSKDSTYSLSSTLTLSKADYEKHKVYACEVTHQGLSSPVTKSFNRGEC
On to B1, for which the apoptosis of MOLM-13 cells is 10%.
